Measurements: PubChem BioAssay (Tox21)
“And” between values parts separate entries of the source, which are not always exact repeats. Equal entries are not always repeated. The inconclusive results got no clear call from the source; some entries with a clear call stand among them for comparison. Potencies of inconclusive entries are left out as doubtful fits. Some structures have more than one record in an assay (separate samples or runs), and their calls can disagree. The source made the active and inactive calls. The call rests on the fitted dose curve; in most records, active means well fitted cell-killing curve with a large enough effect in the repeat runs; inconclusive means weak or mixed curves, or effect the other way; inactive means flat fitted curve, though single readings scatter.

Assay: Caspase-3/7 induction in HepG2 cells by small molecules, qHTS cell viability counter screen (AID 1346981); further: nearly all actives have a fitted effect of over 30% in size
Settings: CellTiter-Fluor fluorescence, 17 h; series mostly up to 92.4 µM
How it was run: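 In this quantitative HTS counter screen, compounds delivered in DMSO were left on unmodified HepG2 cells for 16 hr at 37 C. Viability was then determined fluorometrically with CellTiter-Fluor, in parallel with caspase-3/7 induction in the same wells.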
Potency means the concentration at half of the fitted maximal effect; tags describe the fitted curve by direction and shape.

Structure (SMILES) | Potency
O=S(=O)(O)c1cc(S(=O)(=O)O)c2c(N=Nc3ccccc3)c(O)ccc2c1 | active: 54.7 µM and active: 54.5 µM
CCOC(=O)Cn1cccc1-c1nc(-c2ccc(OC)cc2)c(-c2ccc(OC)cc2)s1 | inconclusive [cytotoxic, partial curve]
C[C@@H]1C[C@H]2[C@@H]3C[C@H](F)C4=CC(=O)C(Cl)=C[C@]4(C)[C@@]3(F)[C@@H](O)C[C@]2(C)[C@@]1(O)C(=O)CO | inactive
CCN(CC)c1ccc(C(=C2C=CC(=[N+](CC)CC)C=C2)c2cc(S(=O)(=O)O)ccc2S(=O)(=O)[O-])cc1 | active: 23.7 µM
C[C@@H]1C[C@H]2[C@@H]3C[C@H](F)C4=CC(=O)C=C[C@]4(C)[C@@]3(F)[C@@H](O)C[C@]2(C)[C@@]1(O)C(=O)CO | inactive
OC[C@@H](O)[C@@H](O)[C@H](O)[C@H](O)CO | inactive
CC/C=C1/OC(=O)c2ccccc21 | inactive
CCCCOCCOCCSC#N | inconclusive [cytotoxic, partial curve, poor fit] and inactive
C=C(C)CC(C)(C)C | inactive
Cc1cc(O)ccc1O | inconclusive [cytotoxic, single point]
Cc1ccc(N/N=c2\c(=O)cc/c(=N\Nc3ccc(S(=O)(=O)O)cc3)c2=O)c(C)c1 | active: 54.5 µM
O=C(Nc1ccc2c(O)c(N=Nc3ccc(N=Nc4ccc(S(=O)(=O)O)cc4)cc3)c(S(=O)(=O)O)cc2c1)c1ccccc1 | active: 24.3 µM
CCOC(=O)c1ccc(OCCN2C[C@H](O)[C@@H](O)[C@H](O)[C@H]2CO)cc1 | inactive
CC(=O)Nc1ccc(C)cc1C | inactive
Cc1c(C2(c3cc(Br)c(O)c(Br)c3C)OS(=O)(=O)c3ccccc32)cc(Br)c(O)c1Br | active: 18.8 µM
N#CCCN(CCO)CCO | inactive
CC1=CCC(C(C)(C)O)CC1 (centres undefined) | inactive
CCC(=O)C1CC(C(C)C)CC=C1C (centres undefined) | inconclusive [rising, single point]
CC(=O)CCC(C)C | inactive
CC(N)=O | inactive

Structure (SMILES) | Potency
Cc1oc(=O)oc1COC(=O)[C@@H]1N2C(=O)[C@@H](NC(=O)[C@H](N)c3ccccc3)[C@H]2SC1(C)C | inactive
CCC(N)(CO)CO | inactive
O=Cc1ccccc1O | inconclusive [rising, single point]
O=C1Cc2cc(Cl)ccc2N1 | inactive
O=c1cc[nH]c(=O)[nH]1 | inactive
C=C(C)C(=O)OCC(CC)(COC(=O)C(=C)C)COC(=O)C(=C)C | inactive
CCC(C)(C)OC | inactive
COc1ccc2sc(C(=O)Nc3nnn[nH]3)c(OC(C)C)c2c1 | inconclusive [cytotoxic, partial curve]
O=[N+]([O-])c1ccc(Nc2ccc(Nc3ccccc3)c(S(=O)(=O)O)c2)c([N+](=O)[O-])c1 | active: 61.1 µM
O=C(O)CCc1nc(-c2ccccc2)c(-c2ccccc2)o1 | inconclusive [rising, partial curve]
O=[Se](O)O | active: 24.4 µM
O=C(Nc1ccc(Cl)c(Cl)c1)c1cc(Cl)cc(Cl)c1O | inconclusive [cytotoxic, full curve]
CC(=O)Nc1cc(S(=O)(=O)O)cc2cc(S(=O)(=O)O)c(N=Nc3ccccc3)c(O)c12 | active: 24.3 µM
Cc1cc(C)nc(NS(=O)(=O)c2ccc(N)cc2)n1 | inconclusive [rising, partial curve, poor fit]
Cc1c(C)c2c(c(C)c1OC(=O)CCC(=O)O)CC[C@@](C)(CCC[C@H](C)CCC[C@H](C)CCCC(C)C)O2 | inconclusive [cytotoxic, single point]
CCc1cccc(O)c1 | inconclusive [rising, full curve, poor fit]
Cc1cc(=O)oc2cc(O)ccc12 | inconclusive [rising, partial curve, poor fit]
CCCC(CCC)C(=O)O | inconclusive [cytotoxic, single point]
c1ccc2cc3c(ccc4ccccc43)cc2c1 | inconclusive [cytotoxic, full curve, poor fit]
